Data on 172 sequences can be found in paper PMC5836133.

The other results are listed elsewhere or left out. At the low end of the ranking, values are background and their order means little.

The test system of the assay is T1, GST-NbGlk1(82-244).
T1 sequence: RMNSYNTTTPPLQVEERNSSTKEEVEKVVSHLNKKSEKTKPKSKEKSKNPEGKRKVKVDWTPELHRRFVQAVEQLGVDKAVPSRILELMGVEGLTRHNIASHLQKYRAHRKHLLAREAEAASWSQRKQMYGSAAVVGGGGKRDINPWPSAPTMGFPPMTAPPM
The experiment in a line: protein-binding microarray.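 Further: rank-based score ranging −0.5 to +0.5 with E above 0.45 taken as significant binding.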 As to conditions: NbGlk1 is a Golden2-like transcription factor of Nicotiana benthamiana; high values mean tight binding; most listed sequences are background and not binding sites; double strand, one strand shown.
For the sequence AACTACGA, the binding signal was -0.089 E-score.
Sequence AAGGAGCA registered a binding signal of -0.248 E-score.
ATGTCGGC returned a binding signal of -0.117 E-score.
Consider ATAACATG, for which the binding signal was -0.0919 E-score.
Then ATGTCCAA, with 0.00699 E-score; and AAAGAACG, with -0.0491 E-score.
As for ATCGCAGA, the binding signal amounted to 0.23 E-score.
Then ACAAGGAG, with -0.201 E-score; and ACGTGGAG, with -0.183 E-score; and AAGAGCTA, with 0.0239 E-score.
The figure for AGTAATCC is 0.369 E-score.
The figure for AGTGGAAA is 0.0483 E-score; for ACAACTCG it is -0.0289 E-score; for AGAGGACC it is -0.308 E-score.
In turn, ACGAGATC gave a binding signal of 0.41 E-score.
AAACCCTA came in with a binding signal of -0.00643 E-score.
The figure for AACTATGA is 0.0548 E-score.
Then AAACAGCG, with -0.0348 E-score; and CAACTTTC, with -0.0493 E-score.
AAAAGGTT: the binding signal was 0.0126 E-score.
For the sequence ATACTCAA, the binding signal is 0.196 E-score.
The sequence CAGATGAA gave a binding signal of 0.0461 E-score.
Then AACCGGAA, with -0.0142 E-score; and ACACTGGA, with -0.107 E-score.
On to ATGAACCG, for which the binding signal was -0.217 E-score.
Then ATATACGC, with 0.0739 E-score.
AGTCAGAG: the binding signal is -0.0528 E-score.
In turn, AATCGATG had a binding signal of 0.268 E-score.
The figure for CAACGGCC is -0.263 E-score; for AAACAGGG it is -0.0926 E-score; for ACTGCCTG it is -0.226 E-score.
AAGTGGGG displayed a binding signal of -0.203 E-score.
AAACGCGG yielded a binding signal of -0.103 E-score.
The figure for CAGAATTA is 0.118 E-score.
Then CAGCAGTC, with -0.257 E-score; and AGGCAGTG, with -0.131 E-score.
The sequence ATGAGAGA came in with a binding signal of 0.0988 E-score.
The sequence AAAAGCTG displayed a binding signal of -0.0311 E-score.
The figure for ACTACAAA is 0.0558 E-score; for ATGTCTAG it is -0.0912 E-score; for AAGCCGGG it is -0.211 E-score.
For AAGCAAGC, the binding signal is -0.242 E-score.
Sequence AGGGCCAC yielded a binding signal of -0.275 E-score.
The figure for CAGAAGCG is -0.072 E-score.
Then CAGCGCTG, with 0.0149 E-score.
The figure for AGGTGGGA is -0.148 E-score; for ATGCCTAG it is -0.165 E-score.
Take ATCGGACC: the binding signal was -0.0571 E-score.
The figure for AACGTTCG is -0.0944 E-score; for CAAGAACA it is -0.0173 E-score.
The figure for ACTCGAGG is -0.0502 E-score; for ATCTGGGG it is 0.27 E-score; for AAACACAC it is 0.133 E-score.
The figure for AGTCGTGG is -0.112 E-score; for ACACCTAT it is -0.0126 E-score; for AGATGCTG it is 0.054 E-score.
In the case of AGCGTATC, the binding signal is 0.36 E-score.
Then CAATTTGA, with 0.0231 E-score; and CAACGTGC, with -0.246 E-score; and ACATACAG, with 0.0684 E-score.
Then ACGGAAGG, with -0.191 E-score; and ATTCAGCG, with -0.11 E-score.
Sequence AGGATTCC showed a binding signal of 0.448 E-score.
Then CACCACGC, with -0.166 E-score; and ACTGGGCT, with -0.256 E-score; and AGGCACAA, with -0.157 E-score.
Then AAGCTACG, with -0.185 E-score; and AATCCCAC, with 0.318 E-score.
AACGGGAG came in with a binding signal of -0.0516 E-score.
As to AAGACAGG, the binding signal came to 0.0457 E-score.
In turn, AAATGCCT gave a binding signal of -0.16 E-score.
The figure for ATTACACG is 0.268 E-score; for ACTAGGCA it is -0.0358 E-score.
Regarding CACACGAG, the binding signal is -0.0638 E-score.
Turning to AATATTCA, the binding signal came to 0.131 E-score.
For the sequence AGGTGTCA, the binding signal was -0.142 E-score.
Then AATCGTTA, with 0.165 E-score; and AATTAGCT, with -0.0741 E-score.
Consider ATTGTGCC, for which the binding signal stood at 0.138 E-score.
The figure for AGGTACGG is -0.0858 E-score; for ACAGCCGT it is -0.222 E-score; for ACTCCGTA it is -0.0316 E-score.
The sequence AAATATTT registered a binding signal of 0.323 E-score.
Then ATTGCGTC, with 0.271 E-score.
The figure for AGGGAAAA is -0.0488 E-score; for CAATTTGC it is -0.0427 E-score.
ACCGCTCG showed a binding signal of -0.0968 E-score.
Then ATTTGTGA, with 0.245 E-score; and AATCTACG, with 0.38 E-score.
Consider ATTACATA, for which the binding signal is 0.267 E-score.
In turn, CACACGCG came in with a binding signal of -0.0846 E-score.
The figure for AGCGTTCA is -0.196 E-score; for ATACAGGC it is 0.0934 E-score.
As for ACAAAGTC, the binding signal was -0.159 E-score.
The figure for ACGGTGCT is -0.239 E-score.
In turn, AATTCATC had a binding signal of -0.0313 E-score.
For ATCGGGGA, the binding signal amounted to 0.273 E-score.
The figure for AGCTAGTC is -0.207 E-score.
Then AGTTGCAT, with -0.0683 E-score; and AGAATCAG, with 0.39 E-score.
In turn, AGCCTATA returned a binding signal of 0.0255 E-score.
For ATAATACA, the binding signal worked out at 0.199 E-score.
In the case of AATATATT, the binding signal turned out to be 0.285 E-score.
As to ATGTTGAC, the binding signal is -0.00987 E-score.
Regarding ACGAGAAG, the binding signal was -0.0907 E-score.
Sequence AATTATTG showed a binding signal of 0.0196 E-score.
In turn, AGGGGTTG gave a binding signal of 0.0254 E-score.
The figure for ATTCCGCG is 0.256 E-score.
Then AAGTATCT, with 0.249 E-score.
Then AACCCTCA, with -0.151 E-score.
Take CAATTAGC: the binding signal is -0.0547 E-score.
Then ATCATTGA, with 0.15 E-score; and CAGCGGAA, with -0.0496 E-score.
Then ACATTCAT, with 0.0302 E-score; and AGCATAGG, with -0.0275 E-score.
For CAAAAGGG, the binding signal was -0.102 E-score.
The sequence AACGAGCA displayed a binding signal of -0.0291 E-score.
In the case of AACAAAAG, the binding signal is -0.00606 E-score.
In turn, AATTCGAA gave a binding signal of 0.076 E-score.
For AACTCCTA, the binding signal is -0.0272 E-score.
Consider AGCAGAGC, for which the binding signal is -0.145 E-score.
In turn, AAACATAC came in with a binding signal of -0.00662 E-score.
The figure for CAGCCCAG is -0.288 E-score; for CACATGAA it is 0.152 E-score; for ACTGGGTG it is -0.218 E-score.
The figure for CACGACCC is -0.203 E-score; for ATCCCTTA it is 0.215 E-score.
Then ACCAATTA, with 0.0139 E-score; and AACTTTGT, with -0.0974 E-score.
In turn, ATAAGATC displayed a binding signal of 0.33 E-score.
On to AGTCCGCA, for which the binding signal is -0.0737 E-score.
The figure for ACCACAAG is -0.109 E-score; for AACTTCCC it is -0.0859 E-score.
The figure for AGTAGTTG is -0.00343 E-score; for ATTCAATG it is 0.0604 E-score.
Sequence ATGCAATA had a binding signal of 0.0779 E-score.
Sequence AGTGCCTA returned a binding signal of -0.225 E-score.
Then AGATAACT, with 0.0104 E-score; and AGTCAATC, with -0.103 E-score; and AAATCCGA, with 0.427 E-score.
Sequence CAAAATTG registered a binding signal of 0.108 E-score.
In turn, ATCACGGA yielded a binding signal of 0.159 E-score.
As to ACCTCCAG, the binding signal was -0.305 E-score.
Regarding ACCGGGGC, the binding signal was -0.133 E-score.
Then ATGCCAGG, with -0.0363 E-score; and ATTGTCCA, with 0.193 E-score.
Then AAGCTAGC, with -0.121 E-score.
The figure for ATCACCTC is 0.103 E-score; for ATCCCCCG it is 0.123 E-score; for ATACTAAT it is 0.126 E-score.
The sequence ACATAGCA gave a binding signal of -0.0674 E-score.
Then AACACCCC, with -0.227 E-score; and ATACCGAA, with 0.193 E-score; and ACCCGCCG, with -0.147 E-score.
Turning to ACCCTAGT, the binding signal was -0.0635 E-score.
The figure for ACTTCCAG is -0.235 E-score.
Then AGTAATAT, with 0.29 E-score; and ATATAGAC, with 0.0704 E-score; and ACACTAGT, with -0.0471 E-score.
The figure for ACACCCAC is -0.11 E-score; for AACTCGCT it is -0.17 E-score.
Consider AGATTGCT, for which the binding signal worked out at 0.426 E-score.
Regarding AAGCCAAA, the binding signal was -0.205 E-score.
Then CAAAGGGG, with -0.11 E-score; and ATCACATC, with 0.191 E-score; and AAGAGGCT, with -0.276 E-score.
Sequence AACAGGTT displayed a binding signal of -0.139 E-score.
Then AAATAGAC, with -0.0414 E-score.
The figure for ATTAGGGA is -0.017 E-score; for AACAAGGT it is -0.1 E-score.
The figure for CAAGATGG is -0.164 E-score.
Sequence AAAGGATA came in with a binding signal of 0.173 E-score.
